Here are results for 31 sequences from article PMC12820563.

The list shows a part of the results. The list includes weakly bound sequences.

The target of the assay is T1, MBP-FoxP3dN (UniProt Q99JB6).
T1 sequence: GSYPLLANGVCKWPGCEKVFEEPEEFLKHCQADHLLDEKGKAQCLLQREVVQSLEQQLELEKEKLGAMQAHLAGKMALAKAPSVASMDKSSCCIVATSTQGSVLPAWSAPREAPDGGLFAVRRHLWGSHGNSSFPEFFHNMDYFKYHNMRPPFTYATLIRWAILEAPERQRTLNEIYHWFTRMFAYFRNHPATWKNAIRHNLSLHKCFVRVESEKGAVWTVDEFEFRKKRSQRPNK
Description: PD-seq (MBP pull-down with sequencing). Conditions: 20 mM Tris-HCl pH 7.5, 100 mM NaCl, 1.5 mM MgCl2, 0.4 uM protein, 0.1 uM dsDNA library, 30 min, room temperature, amylose pull-down; high values mean tight binding; double strand, one strand shown.
In the case of “GATGATTGTTCTCCCAGCTGATGAATTATATTTCTCGAGTAAACAAATTTTCCTAATCTTTCTGTTCAAGCGCCATCTAC”, the binding signal (RPM ratio (pull-down/input)) is 1.24.

As for “GATGATTGTTCTCCCAGCTGATGAATTAGCTATGTCGAGTAAACAAATTTTCCTAATCTTTCTGTTCAAGCGCCATCTAC”, the binding signal (RPM ratio (pull-down/input)) was 1.2.

Turning to “GATGATTGTTCTCCCAGCTGATGAATTCGCTCTGTCGAGTAAACAAATTTTCCTAATCTTTCTGTTCAAGCGCCATCTAC”, the binding signal (RPM ratio (pull-down/input)) stood at 0.305.

For the sequence “GATGATTGTTCTCCCAGCTGATGAATTCTCGACGTCGAGTAAACAAATTTTCCTAATCTTTCTGTTCAAGCGCCATCTAC”, the binding signal (RPM ratio (pull-down/input)) turned out to be 0.26.

Take “GATGATTGTTCTCCCAGCTGATGAATTGGGTGCATCGAGTAAACAAATTTTCCTAATCTTTCTGTTCAAGCGCCATCTAC”: the binding signal (RPM ratio (pull-down/input)) is 1.52.

With “GATGATTGTTCTCCCAGCTGATGAATTATTTTCCTCGAGTAAACAAATTTTCCTAATCTTTCTGTTCAAGCGCCATCTAC”, the binding signal (RPM ratio (pull-down/input)) was determined as 0.995.

On to “GATGATTGTTCTCCCAGCTGATGAATTCAGTCCTTCGAGTAAACAAATTTTCCTAATCTTTCTGTTCAAGCGCCATCTAC”, for which the binding signal (RPM ratio (pull-down/input)) amounted to 0.344.

As to “GATGATTGTTCTCCCAGCTGATGAATTATTGTACTCGAGTAAACAAATTTTCCTAATCTTTCTGTTCAAGCGCCATCTAC”, the binding signal (RPM ratio (pull-down/input)) was 0.792.

“GATGATTGTTCTCCCAGCTGATGAATTAAAGTAATCGAGTAAACAAATTTTCCTAATCTTTCTGTTCAAGCGCCATCTAC”: the binding signal (RPM ratio (pull-down/input)) was 0.578.

With “GATGATTGTTCTCCCAGCTGATGAATTCATAATTTCGAGTAAACAAATTTTCCTAATCTTTCTGTTCAAGCGCCATCTAC”, the binding signal (RPM ratio (pull-down/input)) was found to be 0.381.

With “GATGATTGTTCTCCCAGCTGATGAATTTTGAAGTTCGAGTAAACAAATTTTCCTAATCTTTCTGTTCAAGCGCCATCTAC”, the binding signal (RPM ratio (pull-down/input)) was 0.363.

As for “GATGATTGTTCTCCCAGCTGATGAATTAGCCTGATCGAGTAAACAAATTTTCCTAATCTTTCTGTTCAAGCGCCATCTAC”, the binding signal (RPM ratio (pull-down/input)) came to 0.321.

With “GATGATTGTTCTCCCAGCTGATGAATTCACGTGGTCGAGTAAACAAATTTTCCTAATCTTTCTGTTCAAGCGCCATCTAC”, the binding signal (RPM ratio (pull-down/input)) was found to be 0.36.

As to “GATGATTGTTCTCCCAGCTGATGAATTTGAGCGCTCGAGTAAACAAATTTTCCTAATCTTTCTGTTCAAGCGCCATCTAC”, the binding signal (RPM ratio (pull-down/input)) turned out to be 0.386.

Regarding “GATGATTGTTCTCCCAGCTGATGAATTCCTTCCGTCGAGTAAACAAATTTTCCTAATCTTTCTGTTCAAGCGCCATCTAC”, the binding signal (RPM ratio (pull-down/input)) amounted to 0.198.

As to “GATGATTGTTCTCCCAGCTGATGAATTATCGAGTTCGAGTAAACAAATTTTCCTAATCTTTCTGTTCAAGCGCCATCTAC”, the binding signal (RPM ratio (pull-down/input)) came out at 0.427.

Turning to “GATGATTGTTCTCCCAGCTGATGAATTGTATGTATCGAGTAAACAAATTTTCCTAATCTTTCTGTTCAAGCGCCATCTAC”, the binding signal (RPM ratio (pull-down/input)) was 4.55.

Regarding “GATGATTGTTCTCCCAGCTGATGAATTTTTGGGTTCGAGTAAACAAATTTTCCTAATCTTTCTGTTCAAGCGCCATCTAC”, the binding signal (RPM ratio (pull-down/input)) came to 0.314.

Consider “GATGATTGTTCTCCCAGCTGATGAATTCCGACATTCGAGTAAACAAATTTTCCTAATCTTTCTGTTCAAGCGCCATCTAC”, for which the binding signal (RPM ratio (pull-down/input)) came to 1.35.

On to “GATGATTGTTCTCCCAGCTGATGAATTCGTATAATCGAGTAAACAAATTTTCCTAATCTTTCTGTTCAAGCGCCATCTAC”, for which the binding signal (RPM ratio (pull-down/input)) turned out to be 0.733.

In the case of “GATGATTGTTCTCCCAGCTGATGAATTTATCATATCGAGTAAACAAATTTTCCTAATCTTTCTGTTCAAGCGCCATCTAC”, the binding signal (RPM ratio (pull-down/input)) came to 1.41.

As for “GATGATTGTTCTCCCAGCTGATGAATTAACAGAGTCGAGTAAACAAATTTTCCTAATCTTTCTGTTCAAGCGCCATCTAC”, the binding signal (RPM ratio (pull-down/input)) was 0.209.

Turning to “GATGATTGTTCTCCCAGCTGATGAATTTATCTCTTCGAGTAAACAAATTTTCCTAATCTTTCTGTTCAAGCGCCATCTAC”, the binding signal (RPM ratio (pull-down/input)) was 0.685.

Take “GATGATTGTTCTCCCAGCTGATGAATTGCACCCCTCGAGTAAACAAATTTTCCTAATCTTTCTGTTCAAGCGCCATCTAC”: the binding signal (RPM ratio (pull-down/input)) was 0.825.

Take “GATGATTGTTCTCCCAGCTGATGAATTTCAAGAGTCGAGTAAACAAATTTTCCTAATCTTTCTGTTCAAGCGCCATCTAC”: the binding signal (RPM ratio (pull-down/input)) is 0.219.

As for “GATGATTGTTCTCCCAGCTGATGAATTTTGGGATTCGAGTAAACAAATTTTCCTAATCTTTCTGTTCAAGCGCCATCTAC”, the binding signal (RPM ratio (pull-down/input)) came to 0.383.

“GATGATTGTTCTCCCAGCTGATGAATTGCGGGACTCGAGTAAACAAATTTTCCTAATCTTTCTGTTCAAGCGCCATCTAC”: the binding signal (RPM ratio (pull-down/input)) was found to be 0.708.

“GATGATTGTTCTCCCAGCTGATGAATTGACGTCATCGAGTAAACAAATTTTCCTAATCTTTCTGTTCAAGCGCCATCTAC”: the binding signal (RPM ratio (pull-down/input)) is 0.769.

Turning to “GATGATTGTTCTCCCAGCTGATGAATTCGATACATCGAGTAAACAAATTTTCCTAATCTTTCTGTTCAAGCGCCATCTAC”, the binding signal (RPM ratio (pull-down/input)) amounted to 0.67.

On to “GATGATTGTTCTCCCAGCTGATGAATTTTATTACTCGAGTAAACAAATTTTCCTAATCTTTCTGTTCAAGCGCCATCTAC”, for which the binding signal (RPM ratio (pull-down/input)) is 1.04.

As for “GATGATTGTTCTCCCAGCTGATGAATTCCTTTGTTCGAGTAAACAAATTTTCCTAATCTTTCTGTTCAAGCGCCATCTAC”, the binding signal (RPM ratio (pull-down/input)) is 0.692.
